# Data: publication PMC12136788
# The list shows a part of the results.
# T1: UNK ZnF1-3 (human, UniProt Q9C0B0 31-174)
# T1 sequence: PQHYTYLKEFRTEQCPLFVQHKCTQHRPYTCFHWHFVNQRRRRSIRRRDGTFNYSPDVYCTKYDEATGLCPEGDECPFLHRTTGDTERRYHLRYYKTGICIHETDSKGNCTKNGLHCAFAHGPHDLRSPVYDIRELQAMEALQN
# B1: chr3:167437968:167437969:-_ENSG00000114209_ENST00000497056|hu_hu|motif|central (ssRNA)
# RNA: GGGAGUUCUACAGUCCGACGAUCUUCAUCUCUUCCAUUGUCAUCCUCAUUCAAAAGCCAACUACAGUUGAAAAAGCAGUGCGGAAAUGCAGAGGAAUCUUCAUUCACUGCAAUAUUUCUUCUCUUUUUUGGUGAUAAAAGAAUCAACAGAGGAUUGAGCAUCA
# B2: chr1:174973770:174973771:+_ENSG00000116161_ENST00000406752|hu_hu|FALSE|FALSE (ssRNA)
# RNA: GGGAGUUCUACAGUCCGACGAUCGAUUUCUGUCUCAAUCUUGGAUUUUUCAGCUGUAAGGGCAUCACGUACUCUUUUCCUAGUAGCCUUUUCCAGCAACACCUUUACCUCUUCUAGAUCUUUCUGUAGCUCUUCUGAAGCCAUCAACAGAGGAUUGAGCAUCA
# B3: chr2:37325018:37325019:+_ENSMUSG00000035437_ENSMUST00000112920|perfect_dup|FALSE|FALSE (ssRNA)
# RNA: GGGAGUUCUACAGUCCGACGAUCAUUAUUUGUAGAUGGUGUCUCAUCUCCUUGCCUGGAAACCAAGACAAAAUCUUCACUAUUAAGAGUAGACACUGAGUCUGAUGAGACACUGAUUUUUCCAACAGAGGCCUUGUCAUCCAUCAACAGAGGAUUGAGCAUCA
# B4: chr11:99246770:99246771:-_ENSMUSG00000019761_ENSMUST00000103131|mus_hu|FALSE|FALSE (ssRNA)
# RNA: GGGAGUUCUACAGUCCGACGAUCAAAAGAAGAAAUACAGAAACCACAAAACACCUUGUAGACACCUUAUUUUCAAGGUCUAUUUCCAUAGACCAUCAAGACAGAAGUGUUUUCUUGGAGACUUUGUUUUCCAUGCAUCUGUAACAACAGAGGAUUGAGCAUCA
# B5: chr5:138118867:138118868:+_ENSG00000044115_ENST00000302763|hu_hu|FALSE|FALSE (ssRNA)
# RNA: GGGAGUUCUACAGUCCGACGAUCAGCCAAAACAUGGGCCUUCUUAGAACGACCUCUCUUCUUAUUAGAGGGCCCUUUACUAUUGGUGUUUACAAGGGUUGUAACCUGUGUAACAAGAGGCUCCAACAGUCUCUCAACUGCCAGCAACAGAGGAUUGAGCAUCA
# B6: chr2:158593201:158593202:-_ENSG00000115170_ENST00000434821|hu_mus|motif|central (ssRNA)
# RNA: GGGAGUUCUACAGUCCGACGAUCUGAAAUCUUUGCUUCUAAAUCAGUAAUAUAUCGGGUGGUGUUGCAUGGGUAAUGGCGGAAUAUGUUCUGCAUACGAACUGAAAAGAAAGUUACAGUCUACACACAUUUAAAAAAAAAAAUCAACAGAGGAUUGAGCAUCA
# B7: chr5:86670034:86670035:+_ENSG00000145715_ENST00000456692|hu_hu|FALSE|FALSE (ssRNA)
# RNA: GGGAGUUCUACAGUCCGACGAUCUUCUGACCAUACUGGGUUUUGCCCUUCCCUUGCAUGAGUUUUUGCUACUUGGACACUAUUCAGGUAGAUGUUACAAUAUGGAUUAGUAAAAUGUUUUACUGGGAGUUUAUGGGCUUCUUCCAACAGAGGAUUGAGCAUCA
# B8: chr7:109059925:109059926:+_ENSMUSG00000030842_ENSMUST00000033131|mus_hu|FALSE|FALSE (ssRNA)
# RNA: GGGAGUUCUACAGUCCGACGAUCGCAGGUUAGGGUACUGUAUAAGCCGCAGUGAGGCUGGGGGCCAAGGGGGUGGGGUAGAGAUGGGAUGAAGAGAGGAGAAGAGCUGUCCAAGGACCCCUCUCUUCAUGGGAUCCCAAACUGCAACAGAGGAUUGAGCAUCA
# B9: chr7:141445308:141445309:+_ENSG00000106028_ENST00000265304|hu_hu|hu_hu_hu_mus_False|58_58 (ssRNA)
# RNA: GGGAGUUCUACAGUCCGACGAUCUAUGAUUGUUGUUGCUUGCCGCCUCACAUUGUUUUUAUCCAUGUACUCGCCAUAGUCUAUUUUCCCUUCCACAAAUAUACGAGCCCCCUUUUUCACAUACUGAUAUGCCACAUCUCUGAGCAACAGAGGAUUGAGCAUCA
# B10: chr5:40767622:40767623:-_ENSG00000132356_ENST00000397128|hu_mus|hu_hu_hu_mus_False|58_58 (ssRNA)
# RNA: GGGAGUUCUACAGUCCGACGAUCAUCUUUUAUUGCGGCCCUCUUCAUGGGAUCCACCUGCAGCAUAUGUUUCAAAAGGCUAAUCACUGAAGGGUUUAAGUACUGAGGGGUAUAAAAGAUCCCAUCACAUAUCUUCUUAAAAAGCAACAGAGGAUUGAGCAUCA
# B11: chr6:18258251:18258252:-_ENSG00000124795_ENST00000397239|hu_hu|FALSE|FALSE (ssRNA)
# RNA: GGGAGUUCUACAGUCCGACGAUCCUUCUUUAAUGAGGACACAGUGCCUGGCCUGUUGUAAAGCAGUUUGUGUAGAUUUCUAAGUUCAUCGGUUUUCUUCUUACUUAGAAAAAAAUGUAUCCUCUCAAUUUCACAAAGUUUCUGCAACAGAGGAUUGAGCAUCA
# B12: chr16:45382771:45382772:-_ENSMUSG00000022661_ENSMUST00000163230|mus_mus|mus_mus_mus_hu_True|98_108 (ssRNA)
# RNA: GGGAGUUCUACAGUCCGACGAUCCUGAGUGUUAUUGUGGGCCCAAUGGACAGGGAGGGCAUGCUUCUCAAAAAAUGUGAGCUAUUGUCUAAGACUAACAAUAUUUAUCUAGCUAUAAAAAUAAGUUAAAUGAAUAAGUUAAGACAACAGAGGAUUGAGCAUCA
# B13: chr14:66974463:66974464:+_ENSMUSG00000022044_ENSMUST00000074523|mus_hu|mus_mus_mus_hu_False|68_78 (ssRNA)
# RNA: GGGAGUUCUACAGUCCGACGAUCUUGUAGGACGACUUAUUCAGGGGAUCGGCCAGGAAGCAAGAGCAGAACAGAGACACCAGCGGGAGCUCCUUCAUCUUCUCUUUGUAGGCAGCAAGGGUCAUGUUUCUGGGAUCUGGUGGCCAACAGAGGAUUGAGCAUCA
# B14: chr5:65459698:65459699:+_ENSG00000153914_ENST00000334121|hu_hu|motif|central (ssRNA)
# RNA: GGGAGUUCUACAGUCCGACGAUCCAUUACUUCUUCUAACUCCUUAGCUGCAGCCUGAGGUGUCAUCUCAGGGGGUUUUACGGUUGCAUUGUUGGAGUGAUUUAUUUUCAGUGGCCUGUCUCCAAACAUAACUCCAUUAAAAGCCAACAGAGGAUUGAGCAUCA
# Biological target: T1, UNK ZnF1-3
# Test: nsRBNS (natural sequence RNA bind-n-seq); RBNS binding buffer (assumed for nsRBNS): 25 mM Tris pH 7.5, 150 mM KCl, 3 mM MgCl2, 0.01% Triton X-100, 500 ug/ml BSA, 20 U/ml SUPERase-In, 4 C; UNK is unkempt and MSI1 is Musashi-1; names of the RNAs are library labels; protein concentration not given here; high values mean tight binding
row,Binder,binding signal
1,B1,0.98 enrichment R
2,B2,0.425 enrichment R
3,B3,0.692 enrichment R
4,B4,0.741 enrichment R
5,B5,0.746 enrichment R
6,B6,2.39 enrichment R
7,B7,0.67 enrichment R
8,B8,1.24 enrichment R
9,B9,0.606 enrichment R
10,B10,1.13 enrichment R
11,B11,0.612 enrichment R
12,B12,2.37 enrichment R
13,B13,2.19 enrichment R
14,B14,0.755 enrichment R
